# In the supplement of paper PMC11417369:
# ± gives the standard deviation of the averaged measurements. The list shows a part of the results.
# Tested on: PfAP2-I AP2 domain 3 (GST-tagged)
# Assay: gcPBM binding intensity (ln(normalized median fluorescence intensity)); higher = stronger DNA binding
# How it was run: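 GST-tagged P. falciparum DNA-binding domains produced in E. coli were incubated for 1 h on an Agilent 4 × 180k array of primer-extended double-stranded 36-bp intergenic genomic probes with negative controls. Binding intensity is the highest Masliner-normalised natural-log median intensity across replicate spots of either probe orientation, with bound protein detected by Alexa488 anti-GST antibody at 488 nm.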
row,Sequence,gcPBM binding intensity (ln)
1,TATATAATATATATATGTACACATTTGCAAACAATG [XGTACX_site6941],8.26 ± 0.26
2,ATGAATTAATCTAATCGTACAATAAGCATTATTATA [XGTACX_site2571],7.49 ± 0.47
3,GAATATGTAAAGAAAGGTACACATGAAAATATGTGT [XGTACX_site446],7.71 ± 0.66
4,TGTACCTACAAAATATGATATATTTTTATAAATTGT [XGTACX_negctrl_site498],7.71 ± 0.16
5,TATATATATATACATACATGCATATATATATATATA [TGCATGCA_site513],9.34 ± 0.45
6,AATACAATAAAAAAAAGTACACATGTATAAAAAATT [XGTACX_site8270],8.21 ± 0.39
7,AATATATCTTATTTAACACACACAAAGAAAATAGAA [CACACA_site9242],8.35 ± 0.28
8,TGTTATCAGAAAGCACGTACATATAATTATATATTC [XGTACX_site4188],8.35 ± 0.45
9,TTACAAGTAAAAGGTACACACATTATAAATACAAAT [CACACA_site4752],8.04 ± 0.63
10,AAGAAAGACATTACGTGTACCAAACAACCTACCAAC [XGTACX_site4219],8.22 ± 0.25
11,AAAATTAAACTCACACCACACACAAAAAAAAAAAAA [CACACA_site8131],8.07 ± 0.53
12,ATGTATATGTCTATATGTACTTATATTTTATTTTTT [XGTACX_site5902],7.58 ± 0.38
13,TGTTTTATCTTATATGCACACGATAAAAAAAAAAAA [CACACA_site2674],9.55 ± 0.17
14,ACATAAATATAAACGTGTACATATATAAATATATAT [XGTACX_site7293],8.06 ± 0.26
15,CATATATAAAAAAACACACACATATATATATATATA [CACACA_site1195],9.35 ± 0.47
16,ATATATTTTAATTGTTGTACATATTAAATAAATAGG [XGTACX_site2311],7.75 ± 0.25
17,ATTTTTTTTTTTTATAGTGGATCCACATTTGCCATT [CACACA_negctrl_site1284],7.86 ± 0.81
18,TATATTTTATATATGGTGCAACTTTTATTTAAATAA,9.4 ± 0.16
19,AGTTTTTATAAAAATAGTACATATTTATTAATCTGT [XGTACX_site5881],7.66 ± 0.39
20,CCCACAGACGGACACACACACACACCGACACATATA [CACACA_site4356],8.52 ± 0.071
21,TTTTGTGCTTAAAAAAGTACAAAATATAAAAAAAAT [XGTACX_site7876],9.03 ± 0.36
22,TGCAGTCTGGAGAAACGTACACAGTATCTGGTAACC [XGTACX_site2543],7.67 ± 0.74
23,TTCTATTTTAATATCTGTACATAATAAAGATCCATT [XGTACX_site1142],7.86 ± 0.4
24,AAAATTGAACCTGACAAGGTATTTTATTATTTATTA [TGCATGCA_negctrl_site181],7.22 ± 0.55
25,TGAGTACACAATAATACATGCAATTCCTATGAATAT [TGCATGCA_site851],7.8 ± 0.33
